Results reported in patent publication US20100286374A1 (Amgen, published 2010).

Biological target: the molecule itself
Assay: M315 scFv-Fc homodimer; co-expression with dummy Fc K409D; K392D, SDS-PAGE band density (ND = Not Detectable)
From the text: FIG. 10. SDS-PAGE analysis of charge residue mutations (listed in Table 6) in addition to D399′K - - - K409D pair mutations. Wild type (first lane) and knobs-into-holes mutations (last lane) are also shown for comparison. 1:2 input DNA ratio of dummy Fc and M315 maxibody was used here.
DNA was transfected into human embryonic kidney cell line 293-6E using Lipofectamine™ 2000 reagent (Invitrogen). The cell culture supernatant was harvested 3-4 days after transfection and analyzed on SDS-PAGE Gels under non-reduced condition. The gel was then transferred to nitrocellulose membrane and subject to western analysis using peroxidase-conjugated goat anti-human IgG antibody (Jackson ImmunoResearch Laboratories) and results are shown in FIG. 10.

B1: M315 scFv-Fc D399′K&E357′K (Fc fusion)
chain: HMAEVQLQQSGAELVKPGSSVKISCKASGYTFANNFMHWIKQQPGNGLEWIGWIYPGDGDTEYNQKFSGKATLTADKSSSTAYMQLNSLTSEDSAVYFCIRLTEGTTYWGQGVMVTVSSGGGGSGGGGSGGGGSQFVLTQPNSVSTNLGSTVKLSCKRSTGNIGSNYVNWYQQHEGRSPTTMIYRDDKRPDGVPDRFSGSIDGSSNSALLTINNVQTEDEADYFCQSYSRGVSPVFGGGTKLTVLAAA[human IgG1 Fc with E357K D399K (EU numbers) left out]
notes: Single scFv-Fc chain; also called D357′K
binding result: no binding
